Reference: publication PMC12040169 (PLOS Biology, 2025)
The list shows a part of the results.

tested on: T1, C. trachomatis L2/434/Bu expressing GFP (CTL2-GFP); parameters: species or system HeLa; C. trachomatis total inclusion area by high-content imaging, normalised to DMSO; conditions: total inclusion area; 28.5 h, 10 µM; inhibitor
T1 construct: L2/434/Bu GFP intracellular growth in HeLa cells
Summary of the method: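 Post-fluorescence-read fixation, DNA staining with Hoechst and high-content imaging; GFP inclusion area and number per well, and nuclei counts, used as proxies for bacterial growth and host viability.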

| SMILES | % of control remaining |
| --- | --- |
| Cc1c(CN(Cc2cccc(F)c2)CC2CCCO2)cnn1C (stereo not shown) [CBK282953] | 95.2805 |
| CCC(=O)N(Cc1cc2cc(C)ccc2nc1O)c1ccc(C)c(C)c1 [CBK265381] | 122.382 |
| Cc1noc(C(C)C)c1C(=O)NC(C)c1cccc(Br)c1 (stereo not shown) [CBK296618] | 51.2293 |
| COc1ccc2cc(CN(CCNC(=O)OC(C)(C)C)C(=O)NC3CCCCC3)c(=O)[nH]c2c1 [CBK132074] | 58.8145 |
| CCCN1CCC(NC(C)CCCC(C)(C)O)CC1 (stereo not shown) [CBK261932] | 99.3101 |
| Nc1ccc(OCc2nc3ccccc3n2CC(=O)O)cc1 [CBK270099] | 122.138 |
| COc1ccc(S(=O)(=O)N(C)CC(=O)N2CCN(C)CC2)cc1C [CBK268105] | 69.6319 |
| Cc1ccc(S(=O)(=O)NC[C@H]2O[C@@H](CC(=O)N3CCCC3)[C@H](O)[C@@H]2O)cc1 [CBK288910] | 93.457 |
| Cn1nc(C2CC2)cc1NC(=O)NCC1CCN(c2ccccc2F)C1 (stereo not shown) [CBK304380] | 85.0925 |
| Cc1ccc(CC(=O)N2CCCCC2c2ncc(-c3cccc(F)c3)[nH]2)cn1 (stereo not shown) [CBK291152] | 99.2646 |
| CN1CCN(CCOC(=O)N2CCCC(F)(F)C2)CC1 [CBK200208] | 93.2377 |
| CCN1CCN(C(=O)CN(CC)S(=O)(=O)c2ccc(Cl)cc2)CC1 [CBK268461] | 59.5622 |
| O=C(OCc1cccc(C(=O)c2ccccc2)c1)c1ccc(-c2nnc(-c3ccccc3)o2)cc1 [CBK267852] | 94.4351 |
| COc1ccc(S(=O)(=O)N2CCC(C(=O)Nc3cccc(F)c3)CC2)cc1C [CBK267987] | 105.321 |
| c1ccc2c(c1)CCN(c1nc3cc4c(cc3s1)OCCO4)C2 [CBK287498] | 88.7778 |
| O=C(c1ccco1)N1CCC(c2ccnc3nc4ccccc4n23)CC1 [CBK284490] | 102.333 |
| CC(C)CC(=O)N1CCN(C(=O)c2ccc(F)cc2)CC1 [CBK003603] | 61.7786 |
| CC(C)(C)n1cc(NC2CCN(c3ccc(C#N)cc3)C2=O)cn1 (stereo not shown) [CBK306445] | 81.4207 |
| Cc1cc(OC(=O)C2CCC(CNC(=O)OC(C)(C)C)CC2)c2c3c(c(=O)oc2c1)CCCC3 (stereo not shown) [CBK083590] | 85.0081 |
| Cc1cc(=O)c2ccccc2n1CC(=O)N1CCC2(CCO2)CC1 [CBK306809] | 87.9214 |
| O=C(O)/C(=C\c1ccccc1)NC(=O)c1cccc([N+](=O)[O-])c1 [CBK263348] | 88.3829 |
| Oc1cccc(OCCOc2cccc(C(F)(F)F)n2)c1 [CBK115797] | 67.0503 |
| N#Cc1ccc(OCCO)cc1 [CBK000723] | 90.4778 |
| COc1ccc(C(C)C)cc1-c1cnc2nc(N)ccc2c1 [CBK081216] | 78.4697 |
| COc1ccc(C(=O)N2CCC3(CCCN(CCN(C)C)C3)C2)cc1OC (stereo not shown) [CBK132873] | 103.251 |
| CC(CNC(=O)c1cncc(O)c1)NC(=O)c1cncc(O)c1 (stereo not shown) [CBK278174] | 102.98 |
| CCOC(=O)c1c(NC(=O)CN2CCCCC2)sc2c1CCCC2=O [CBK263224] | 119.301 |

| SMILES | % of control remaining |
| --- | --- |
| O=C(NCCCO)c1c(O)c2ccccc2[nH]c1=O [CBK018215] | 65.1795 |
| CC1CCN(S(=O)(=O)c2cccc(C(=O)NNC(=O)c3ccco3)c2)CC1 [CBK266796] | 117.316 |
| CC(C)(C)OC(=O)NC1CCN(C(=O)CCC(=O)O)CC1 [CBK286604] | 72.9552 |
| O=C1CC(C(=O)NCc2ccc(-c3csnn3)cc2)c2ccccc21 (stereo not shown) [CBK149301] | 85.8193 |
| Cc1scc(C(=O)NN2CCN(C)CC2)c1-c1ccccc1 [CBK268115] | 110.267 |
| Cc1ccc(CCn2nc(C)cc2C)cn1 [CBK021375] | 50.2868 |
| CCc1cnc(CN(C)C2CCN(CC(=O)NCc3ccco3)C2)o1 (stereo not shown) [CBK306137] | 60.3541 |
| CC(C)Nc1nc2ccccc2nc1SCCC(=O)O [CBK107858] | 100.446 |
| COC(=O)c1sccc1Oc1ccc([N+](=O)[O-])cn1 [CBK066826] | 97.0953 |
| COc1ccccc1Cc1cccc(C2CCN(C(=O)Cc3c[nH]c4ccccc34)CC2)n1 [CBK286226] | 110.945 |
| COc1c(Cl)cc(Cl)cc1C(=O)NC(=S)Nc1sc2c(c1C#N)CCCC2 [CBK268741] | 94.5804 |
| CC(C)Nc1cccnc1N1CCN(C(=O)c2cc3cc(NS(=O)(=O)CCc4ccncc4)ccc3[nH]2)CC1 [CBK012661] | 112.475 |
| COc1ccc(C(=O)N2CCN(C)CC2)cc1Nc1cncc(-c2cc3ccccc3o2)n1 [CBK155266T] | 93.2172 |
| COc1cncc(-c2cnc(N)c(NCc3cccnc3)n2)c1 [CBK063531] | 126.288 |
| Nc1ncc(-c2cccc3cccnc23)nc1NCc1ccncc1 [CBK063622] | 107.785 |
| Cc1cc(C(=O)N2CCCC(c3ccc(Cc4ccc(Cl)cc4)cn3)C2)nc(N(C)C)n1 (stereo not shown) [CBK286036] | 67.6131 |
| CCOc1cccc2cc(-c3cc(=O)oc4cc(C)c(O)cc34)oc12 [CBK300517] | 70.5316 |
| COc1ncc(-c2nccnc2OCCc2c[nH]c3ccccc23)c(OC)n1 [CBK106743] | 118.575 |
| CCOC(=O)Cn1[nH]c(CO)c(Cc2c(Cl)cccc2Cl)c1=O [CBK103580] | 96.816 |
| Cc1cc(C)nc(NC(=O)OCc2cc(C)nc(C)c2)c1 [CBK138231] | 103.553 |
| COc1ccc(-c2cnccc2-n2ccnc2)cn1 [CBK177147] | 93.0511 |
| FC(F)(F)c1cccnc1OCCN1CCOCC1 [CBK113456] | 89.182 |
| CCC1(CC)OC(N[C@@H](C)c2ccc(Br)cc2)=NC1=O [CBK126665] | 79.9479 |
| COc1cccc2cc(C(=O)NCc3cccs3)oc12 [CBK149799] | 87.5292 |
| Cc1ccc(Nc2cc(-c3cccnc3)ncn2)cc1NS(C)(=O)=O [CBK091147] | 84.1481 |
| CC(Oc1cccc(Br)c1)C(=O)NCCC(=O)O (stereo not shown) [CBK268024] | 104.648 |
| Cc1oc(C)c(C(=O)Nc2cccc(C(=O)O)c2)c1C(=O)Nc1cccc(C(=O)O)c1 [CBK266472] | 116.891 |

| SMILES | % of control remaining |
| --- | --- |
| Cc1ccc(S(=O)(=O)N[C@H]2CO[C@H]3[C@@H]2OC[C@@H]3n2nnnc2Oc2ccccc2)cc1 [CBK289485] | 90.9028 |
| O=C(CSc1nnnn1C1CC1)c1cc2ccccc2o1 [CBK297158] | 76.8576 |
| O=C(c1ccccc1)N1C[C@@H](c2ccsc2)[C@@H]2CN(Cc3ccccc3Cl)CC[C@@H]21 [CBK285613] | 79.4748 |
| c1cc(-c2n[nH]c(C3CCNCC3)n2)ccn1 [CBK104676C] | 116.772 |
| CC(C)(C)c1nnc(NS(=O)(=O)c2ccc([N+](=O)[O-])cc2)s1 [CBK045500] | 105.475 |
| c1csc(Sc2nc3ccccc3nc2N2CCCC2)c1 [CBK115225] | 75.6513 |
| Cc1cc(Cl)cc(Cl)c1S(=O)(=O)Nc1nc(CC(=O)O)cs1 [CBK000573] | 57.8606 |
| COc1ccccc1CN(Cc1cccnc1)C(=O)CCN1CCCO1 [CBK306959] | 88.7135 |
| CN(C)CC(=O)N/N=C/c1ccsc1 [CBK008256C] | 51.4475 |
| CN1CCN(C(=O)Cn2cc(C(=O)Nc3ccc(F)cc3)ccc2=O)C(c2ccccc2)C1 (stereo not shown) [CBK286050] | 135.749 |
| NCCn1cc(C(=O)N2Cc3cnn(Cc4ccc(F)cc4)c3C2)nn1 [CBK307461] | 116.402 |
| Clc1ccc(N2CCN(c3cnc4ccccc4n3)CC2)cc1Cl [CBK066903] | 101.175 |
| O=C(O)c1ccccc1N1C(=O)C2CC=C(Cl)CC2C1=O (stereo not shown) [CBK287007] | 116.54 |
| COc1ccc(-c2[nH]c(=S)ncc2-c2ccccc2)c(O)c1 [CBK288447] | 80.5867 |
| COc1ccc(-c2cc(C(=O)NCCS(C)(=O)=O)cnc2-c2ccc(Cl)cc2)cc1 [CBK037620] | 82.224 |
| Cc1ccc(SCCCNCCN(C)C)cc1 [CBK267807C] | 110.232 |
| COc1ccc(C(C)NC(=O)c2cn[nH]c2-c2ccc(Cl)cc2)cc1 (stereo not shown) [CBK288065] | 93.0663 |
| COc1ccc(-c2nc(C3CCN(C(=O)NC(C)(C)C)CC3)n3ccccc23)cc1 [CBK047080] | 92.5993 |
| COc1cccc(C(=O)NCCC(=O)N2CCc3c(nc[nH]c3=O)C2)c1 [CBK307231] | 37.9084 |
| COc1ccccc1N1C(=O)CC(N2CCC(C(N)=O)(N3CCCCC3)CC2)C1=O (stereo not shown) [CBK265533] | 114.54 |
| CS(=O)(=O)N(Cc1ccccc1)c1ccc(C(=O)N/N=C/c2ccccc2C(F)(F)F)cc1 [CBK262711] | 101.172 |
| CC(=O)N[C@@H](Cc1ccccc1)C(=O)N1CC[C@H]2NC(=O)[C@H](Cc3ccccc3)NC(=O)C3(C/C=C/C[C@@H]2C1)CCOCC3 [CBK292190] | 122.745 |
| COCCCNc1nc2c(-c3ccc(Cl)cc3)nnn2c2ccccc12 [CBK287770] | 80.7154 |
| Cc1ccc(C2=CCN(CC(=O)Nc3nc(C)c(C)s3)CC2)o1 [CBK283607] | 87.2316 |
| CN(C)S(=O)(=O)N(CC(=O)NCc1ccco1)c1ccccc1 [CBK267971] | 95.5025 |
